# Experimental data reported in ChEMBL document CHEMBL4888484, “Replenishing the malaria drug discovery pipeline: Screening and hit evaluation of the MMV Hit Generation Library 1 (HGL1) against asexual blood stage Plasmodium falciparum ,using a nano luciferase reporter read-out” (2022).
# The whole screen tested about 150,000 compounds, of which about 540 (0.36%) showed an effect of 50% or more. The list shows a part of the results.
# Test system: Plasmodium falciparum
# Assay: Primary screen in NF54 nanoGlo assay, in single point, at 2uM, 72h; a lower Z score goes with more inhibition
# Type: functional, Erythrocyte
# Conditions: timepoint 72 hour
Structure (SMILES),% Inhibition,Z score
CCN1C(=O)c2cc(C(=O)N3CCN(C)CC3)nn2C[C@@]1(C)C(=O)NC1CCCC1,-13%,2.03
Cc1nccn1CCNC(=O)[C@]1(C)COCc2nnc(C3CCCC3)n21,-5%,0.55
CC1CCN(S(=O)(=O)c2ccc(CNC(=O)CCC3CCCC3)s2)CC1,-19%,2.98
CC1CN(C(=O)NCc2cc(Cl)sc2Cl)CC1(C)CO (stereo not given),-16%,2.07
Cc1cc(OC2CCN(C(=O)Cc3cccs3)CC2)nc(C)n1,-9%,1.62
O=C(c1ccc(=O)[nH]n1)N1CCC[C@H](Oc2ncc(Cl)cn2)C1,8%,-1.06
c1cnn(Cc2noc3c2CCCC3)c1,-3%,0.34
CC1=CN(c2ccc(Br)cc2)C(=O)N(c2ccccc2)N=C1C,-45%,5.24
O=C(c1cnn(-c2ccccc2)n1)N1CC(Nc2cccnn2)C1,-8%,0.9
C[C@@H]1[C@H](C(=O)Nc2cccc(NC(N)=O)c2)CCCN1C(=O)OC(C)(C)C,-6%,0.92
CCOCC(=O)NCCn1ccc(-c2cnccn2)n1,-12%,1.98
Cc1nnc([C@H]2CCN(Cc3cccc(C#N)c3)C2)o1,-6%,0.92
Cc1cccc(C)c1NC(=O)CN(CC(=O)Nc1c(C)cccc1C)Cc1nc(-c2cccnc2)no1,-9%,1.03
C#CCN1CCC(C(=O)N(CCC#N)CCC(C)C)CC1,-10%,0.97
COCc1cccc(CN(CCO)C2CCC(C)C2)c1 (stereo not given),-3%,0.51
Nc1ncnc(NC2CCCC(O)C2)c1Cl (stereo not given),-3%,0.61
O=C(Nc1ccccc1-c1ccco1)N1CCN[C@@H]2CS(=O)(=O)C[C@@H]21,-8%,1.22
CNc1snc(C)c1C(=O)N[C@H]1CCc2ccccc21,19%,-3.67
Cc1ccnc(Oc2ccc(NC(=O)c3cccc4cc[nH]c34)cc2)n1,-10%,1.56
O=C(C1CCCC1)N1C[C@H](O)[C@@H](N2CCOCC2)C1,-1%,0.09
COC(=O)c1ccc(CN2C(=O)CN(C3CCCC3)C2=O)c(F)c1,-10%,1.37
NC(=O)N1CCCN(c2nc(C3CC3)nc3scc(-c4ccccc4)c23)CC1,3%,-0.41

Structure (SMILES),% Inhibition,Z score
CCn1c([C@H]2CCCNC2)nn(Cc2ccc(C(F)(F)F)nc2)c1=O,4%,-0.65
C[C@@H]1CCC2C(C)(C)[C@H](O)[C@H](O)C[C@]2(C)[C@@]12Cc1c(O)cc3c(c1O2)CN(CCCC(=O)O)C3=O (stereo not given in full),29%,-3.25
COCc1nc(CNc2cccc3c2CN([C@@H](C)C(C)C)C3)no1,-7%,1.27
Cc1ccc(S(=O)(=O)N2COCC2(C)C)cc1,-8%,0.93
COCCn1c(=O)c2cc(C(=O)Nc3ccccc3)nn2c2ccccc21,-12%,1.22
O=C(Nc1ccc2c(c1)C(=O)NC2)c1ccc(O)nc1,-7%,0.69
O=C(Cc1ccc(N(Cc2cccc(F)c2)C(=O)C2CCCC2)cc1)NCc1cccnc1,0%,-0.03
CC(C)NC(=O)c1cncc(Br)c1,1%,-0.14
Cc1nn(Cc2nnc(-c3ccc(C#N)cc3)o2)c(C)c1CCO,-5%,0.65
COC(=O)c1ccc(N2CC(C)OC(C3CC3)C2)c(C#N)n1 (stereo not given),-10%,1.09
COc1cc(OC)cc(S(=O)(=O)N[C@H]2CCCC[C@@H]2O)c1,-3%,0.32
CC(NC(c1ccc(Cl)cc1)C1CC1C)c1ccc(F)cn1 (stereo not given),-2%,0.31
Cc1ccc(-c2c[n+](CC(=O)c3ccccc3)c(N)n2C)cc1C,-6%,1.07
CCN(C)C1(CNc2nccc(NC)n2)CCCCC1,2%,-0.23
C[C@@H](C(=O)Nc1ccccc1)N1CCN(Cc2ccccn2)CC1,2%,-0.22
Cc1nc(C(=O)Nc2cccnc2)cs1,4%,-0.78
O=C(Nc1ccc(F)c(-c2nnc(-c3ccccc3)o2)c1)Nc1ccc(F)cc1F,-5%,0.72
CS(=O)(=O)NCCn1ccc(C(F)(F)F)n1,-14%,1.73
CC(C)CN1C[C@H](CNC(=O)c2n[nH]c3c2CCc2ccccc2-3)OCC1=O,3%,-0.39
Cn1nnc2c(C(=O)Nc3nccs3)ccnc21,-9%,1.55
Cc1ccc(S(=O)(=O)[C@@H](CNC(=O)c2ccco2)c2cccnc2)cc1,-12%,1.8
COCCCCNC(=O)N1CCC[C@H]1c1ccc2c(c1)OCCO2,6%,-0.91

Structure (SMILES),% Inhibition,Z score
CN1CCCC2(CCN(C(=O)c3ccncn3)CC2)[C@H]1C(=O)N1CCCC1,-1%,0.2
Cc1ccc(CC(=O)Nc2nnn(Cc3ccccc3F)c2C)cn1,-18%,1.88
Cc1ccccc1C1=NO[C@@H](CN(Cc2ccc(F)cc2)C(=O)NC(C)(C)C)C1,-16%,1.61
COCCN1CCC[C@H]1c1nc(C2CN(S(=O)(=O)c3cccc(OC)c3)C2)no1,11%,-1.33
O=C1C[C@H](c2c(F)cccc2F)c2ncn(-c3cccnc3)c2N1,6%,-0.81
O=C(c1ccccc1Cl)N1CCN(S(=O)(=O)C2CC2)CC1,-8%,1.12
Cc1cc(N2CCOC[C@@H]2C)n2ncnc2n1,-6%,0.76
Cc1ccc(N(C(=O)c2cc(C3CC3)no2)C2CCCCC2)nc1,-12%,1.26
O=C(NCCc1ccccc1)[C@@H]1CCN1C(=O)c1ccccc1,-32%,3.76
CCCCc1nc(N2CCN(C(=O)COC)CC2)c2c(-c3ccc4ccccc4c3)noc2n1,-1%,0.06
Cc1cc(=O)c(C(=O)Nc2cccc(-c3csc(C)n3)c2)c[nH]1,-13%,1.11
CC1CC(C(=O)N2CCN(Cc3ccc(-c4ccccc4F)s3)CC2)CCO1 (stereo not given),-16%,1.39
Cc1csc([C@H](C)NC(=O)c2cc3ncc(CCO)cn3n2)n1,-3%,0.42
O=C1CN(C(=O)c2cc3c(s2)CCCCC3)CCN1,-9%,1.38
O=C(CS(=O)(=O)c1nnnn1C1CCCCC1)Nc1ccc(F)cc1,1%,-0.11
Cn1nc(-c2nccn2CCCn2ccnc2)c2c(Cl)cccc21,-13%,1.25
O=C(CCc1cscn1)NCC1CC12CCc1ccccc12 (stereo not given),-17%,1.85
C[C@]1(O)CCN(C(=O)c2cc(C3CC3)no2)C[C@H]1Cc1ccccc1,8%,-1.05
CCn1cc(C(=O)C(=O)N(C)[C@H](c2ccccc2)C(F)(F)F)cn1,-4%,0.47
CCc1cnc(C)nc1N1CCC(NCc2cc(COC)[nH]n2)CC1,-6%,1.12
CN1CCn2ccnc2C12CCN(S(=O)(=O)c1cc(F)ccc1F)CC2,-3%,0.35
O=C(NCCc1ccon1)c1cc(Br)cnc1C1CC1,1%,-0.08

Structure (SMILES),% Inhibition,Z score
Cc1cc(Cn2ccc(-c3cccc(-c4c(C)n(C)c(=O)n(C)c4=O)c3)n2)no1,-3%,0.49
Cc1nc(CN(C)c2ncncc2C(=O)O)cs1,0%,0.04
CCOC(=O)c1cc(NC(=O)c2ccc3[nH]cnc3c2)cn1C,31%,-3.48
O=C(c1ccc[nH]1)N1C[C@H]2CC[C@@H](C1)N(Cc1ccccc1)C2=O,-16%,3.04
CN(C)C(=O)N1C[C@H]2CC[C@@H](C1)N(C(=O)c1nc3ccc(F)cc3[nH]1)C2,-9%,1.1
O=C(O)c1ccc(NCC[C@H]2CCCO2)cc1,-4%,0.55
CCCN(Cc1nc(C)c(Cc2cccc(C)c2)c(=O)[nH]1)C(=O)NC(C)(C)C,-1%,0.17
CN(C)C(=O)N1CCC(c2nc(CC(N)=O)nn2-c2ccncc2)CC1,-9%,1.19
CCc1nc(C)nc(N2CCN(C(=O)[C@H]3CCOC3)CC2)c1Cc1ccc(C)cc1,-1%,0.15
c1ccc2c(c1)CCN(c1ncnc3c1CCNCC3)C2,-5%,0.82
Cc1c(C(=O)N2CC[C@H](N(C)C)C2)sc2ncnc(NCc3ccc4c(c3)OCO4)c12,-4%,0.54
COCCC1(C(=O)Nc2ccc(O[C@H]3CCOC3)cc2)CCC1,-7%,1.14
CC(C)CS(=O)(=O)CCNC(=O)Nc1cncc(F)c1,0%,-0.04
O=C(Cc1ccccc1F)NC1(C(=O)O)CCC1,1%,-0.29
O=C(N1CC[C@H](CO)C1)N(c1ccccc1)c1ccccc1,-9%,0.86
CCCc1nc(C)cc(N2CCC(C[C@H]3CCCCO3)(C(=O)O)CC2)n1,-17%,2.94
Cc1cccc(OCCN2CCc3c(ncn3C)C2)c1,-27%,5.15
Cc1nn(C)cc1S(=O)(=O)N[C@@H](C)c1ncnn1C,-19%,3.29
c1ccc(-n2nc(C3CC3)nc2Cc2n[nH]c3ccccc23)nc1,3%,-0.58
